Data taken from PMC4336329 (PLoS ONE, 2015).
The whole screen tested about 310,000 compounds, of which about 14,000 (4.5%) showed an effect of 50% or more. Effects have a minus sign here. Some of the results follow. Where a SMILES comes first, the peptide text is derived from it. The star is where a group is joined. Bz = O=C(c1ccccc1)*

biological target: human ether-à-go-go-related gene (hERG) potassium channel (human, UniProt Q12809); assay: primary screen, population patch clamp on CHO cells stably expressing hERG
Sequence (Q12809 whole entry, looked up): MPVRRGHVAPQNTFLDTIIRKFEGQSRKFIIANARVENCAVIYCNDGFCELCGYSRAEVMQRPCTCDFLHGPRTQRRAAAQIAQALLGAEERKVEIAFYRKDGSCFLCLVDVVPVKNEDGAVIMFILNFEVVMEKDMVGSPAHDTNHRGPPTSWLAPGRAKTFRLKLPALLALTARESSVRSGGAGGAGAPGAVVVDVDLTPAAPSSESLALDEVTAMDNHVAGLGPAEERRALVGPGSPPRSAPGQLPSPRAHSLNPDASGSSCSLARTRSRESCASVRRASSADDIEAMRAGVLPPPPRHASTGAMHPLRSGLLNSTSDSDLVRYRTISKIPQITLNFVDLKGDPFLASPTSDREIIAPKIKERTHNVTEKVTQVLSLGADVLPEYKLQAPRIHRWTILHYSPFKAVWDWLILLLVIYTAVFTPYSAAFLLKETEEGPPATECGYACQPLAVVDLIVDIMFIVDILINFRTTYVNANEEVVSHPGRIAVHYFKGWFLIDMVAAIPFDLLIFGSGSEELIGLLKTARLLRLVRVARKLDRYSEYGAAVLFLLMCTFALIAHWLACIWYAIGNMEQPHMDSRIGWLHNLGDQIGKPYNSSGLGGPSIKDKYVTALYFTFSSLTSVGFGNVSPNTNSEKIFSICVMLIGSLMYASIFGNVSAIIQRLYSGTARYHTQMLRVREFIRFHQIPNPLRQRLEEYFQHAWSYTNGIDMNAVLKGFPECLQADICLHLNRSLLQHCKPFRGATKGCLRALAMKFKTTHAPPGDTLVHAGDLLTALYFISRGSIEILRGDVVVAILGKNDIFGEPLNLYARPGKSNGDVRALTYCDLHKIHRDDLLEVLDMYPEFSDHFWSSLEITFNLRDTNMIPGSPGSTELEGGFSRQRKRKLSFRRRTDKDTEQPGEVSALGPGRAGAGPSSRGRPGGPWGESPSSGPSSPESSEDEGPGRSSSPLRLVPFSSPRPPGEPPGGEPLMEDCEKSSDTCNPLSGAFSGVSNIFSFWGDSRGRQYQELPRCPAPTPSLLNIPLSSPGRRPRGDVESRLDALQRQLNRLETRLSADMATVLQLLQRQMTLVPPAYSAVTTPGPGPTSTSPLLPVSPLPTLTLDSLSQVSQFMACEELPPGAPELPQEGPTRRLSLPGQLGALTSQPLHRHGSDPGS
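Also: peak tail current of the secondary pulse compared with the same well before compound.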

SMILES | hERG current change (%, negative = inhibition) at 10uM [%]
COCCn1c(SCC(=O)N2CCCc3ccccc32)nnc1-c1ccco1 | 4.37
CCOc1cc(N2CCOCC2)c(OCC)cc1NC(=O)CSc1ncccn1 | -7.47
O=[N+]([O-])c1cc(-c2nnc(C34CC5CC(CC(C5)C3)C4)o2)cc([N+](=O)[O-])c1 | -3.46
CCOC(=O)CNC(=O)CNC(=O)c1nn(-c2ccc(OC)c(OC)c2)c(=O)c2ccccc12 | 28.7
Cc1ccc(-c2csc(N(C)C(=O)c3c(C)nn(-c4ccccc4)c3Cl)n2)cc1 | 14.9
CCOC(=O)c1ccc(NC(=O)CSc2nc(SC)ns2)cc1 | 7.04
O=C(COC(=O)c1ccccc1Oc1ccccc1)NC1CC1 | 3.65
C/C(CC(=O)NCc1ccc(Cl)cc1)=N\NC(=O)Cc1ccccc1 | -26.5
O=C(CSc1nnc(NC(=O)C2CCC2)s1)Nc1ccccc1F | 10.9
O=C(NCCc1ccccc1)/C(=C/c1ccco1)c1ccccc1 | -13.8
COc1ccc(CN2CC(=O)N(c3ccc(C)cc3)C2=S)cc1OC | 2.13
COc1ccccc1C1CCN(C(=O)C2CCCCC2)CC1 | 0.179
CC(=Nc1ccc(C)cc1C)c1sc2ccccc2c1O | 3.21
COc1ccc2nc(C)c3cc(C)oc3c2c1 | -15.5
CC1CCCN(CCCOc2ccc([N+](=O)[O-])cc2)C1.O=C(O)C(=O)O (centres unmarked) | -74.7
COc1cc(-c2nnc(NC(=O)c3ccc(S(=O)(=O)N4CCOCC4)cc3)o2)cc(OC)c1OC | 15.5
Cc1nonc1NC(=O)CSc1nc(C2CCCCC2)nc2ccccc12 | -2.81
O=C(NC(Cc1ccccc1)C(=O)NC(Cc1ccccc1)C(=O)O)c1ccccc1 (stereo not drawn) (Bz-Phe-Phe-OH; configuration not given here) | 36.1
CCOC(=O)CSc1nc2cc(C(F)(F)F)cnc2n1C | -14.6
CCn1c(SCc2cccc(F)c2)nnc1-c1ccncc1 | -8.82
Cc1ccc(Cc2c(C)[nH]c(=S)[nH]c2=O)cc1 | 15.7
CCn1c(CC(C)C)n[nH]c1=S | 0.712

SMILES | hERG current change (%, negative = inhibition) at 10uM [%]
COc1ccc(NC(=O)c2nnn(Cc3cccc(F)c3)c2N)c(OC)c1 | 1.29
CCc1ccc(-n2c(SCC(=O)c3ccc4c(c3)NC(=O)CO4)nc3ccccc3c2=O)cc1 | 14.8
CCOc1ccc(C(N)=O)cc1OC | 6.13
CCOc1ccc(C(=O)CCC(=O)NCC(=O)OCc2ccccc2)cc1OCC | 19.1
C#CCNC(=O)C1=C[C@@H](c2ccc(C(F)(F)F)cc2)C[C@@H](OCc2ccc(CO)cc2)O1 | -37
COc1cccc(CN(C)C(=O)C2CC(=O)N(c3ccc4c(c3)OCCO4)C2)c1 (centres unmarked) | 12.1
CN(CC(=O)Nc1ccc(N2CCOCC2)cc1)Cc1c(O)ccc2ccccc12 | 1.97
COc1cccc(Nc2nc(NCCO)c3ccccc3n2)c1.Cl | -40.2
O=S(=O)(NC1CCCCC1N1CCC(O)CC1)c1ccccc1 (centres unmarked) | 26.2
Cc1cccc(N2C(=O)CC(Sc3nccc(C)n3)C2=O)c1 (centres unmarked) | 4.01
Cc1ccccc1CCN(C(=O)CN1C(=O)c2ccccc2S1(=O)=O)C(C(=O)NCC1CCCO1)c1ccncc1 (centres unmarked) | -18.8
O=C(NC1CCCC1)C(c1ccc(F)cc1)N(Cc1ccccc1Cl)C(=O)CCl (centres unmarked) | 0.933
Nc1nc(CSc2nc3ccccc3[nH]2)nc(N2CCOCC2)n1 | 3.53
CCn1cc(CCC(=O)NC2CCCC2)c2ccccc21 | 1.13
O=C(O)/C(=C\c1ccco1)NC(=O)c1ccc(Br)o1 | 11.3
COc1ccc(OC)c(C(=O)COC(=O)CN2C(=O)NC3(CCCCC3C)C2=O)c1 (centres unmarked) | -28.7
Cn1nnc(NC(=S)NC(=O)c2cccc3c(Br)cccc23)n1 | 17.4
O=C(Nc1ccccc1C(=O)NCCCN1CCOCC1)c1ccc(F)cc1 | -15.6
COc1ccccc1CN1CC(C(=O)NCc2ccc(C)c(F)c2)CCC1=O (centres unmarked) | 0.721
Cc1cc(Cl)c(OCCCn2cncn2)c(Br)c1 | -14.1
CCOC(=O)c1cnc2c(Cl)cccc2c1NCCN(C)C.Cl | -25.6
CCc1ccc(NC(=O)c2cc(-c3cccs3)on2)cc1 | 14.4

SMILES | hERG current change (%, negative = inhibition) at 10uM [%]
COc1ccc(CC(=O)NC(C)c2nnc(SCCOc3ccc(OC)cc3)n2C)cc1 (centres unmarked) | -11.2
O=C(C1=C[C@@H](C2CCCCC2)C[C@@H](OCc2ccc(CO)cc2)O1)N1CCN(Cc2ccccc2)CC1 | -25.4
CC(C)C(NC(=O)c1ccc2c(c1)OCCO2)c1nc2ccccc2[nH]1 (centres unmarked) | 26.2
Br.Cc1cc(C)nc(/N=C2/NC(=O)CS2)n1 | 7.59
CCCN(CCC)C(=O)C1CCCN(S(=O)(=O)c2ccc3c(c2)oc(=O)n3C)C1 (centres unmarked) | -7.73
COc1ccc(-c2nnc3n2N=C(C)CS3)cc1 | 3.51
Cc1ccc(CN2CCC(N3CC(C)OC(C)C3)CC2)cc1.Cl (centres unmarked) | 4.91
CCOC(=O)c1ccc(N=C2S/C(=C\c3cc(C)n(-c4cccnc4)c3C)C(=O)N2C)cc1 | 0.0252
Cc1nc2cc([N+](=O)[O-])ccc2c(=O)n1-c1ccc(Br)cc1 | 4.66
O=c1cc(O)nc(SCc2ccc(Cl)cc2)[nH]1 | -5.71
CS(=O)(=O)N1CC(C(=O)NN)Oc2ccc(Cl)cc21 (centres unmarked) | 13.6
CCCCNC(=O)c1ccc(CNc2c(N3CCC(C(=O)OCC)CC3)c(=O)c2=O)cc1 | -24.3
O=C(CN1CCN(S(=O)(=O)c2ccc(Cl)cc2)CC1)NC(=O)NC1CCCCC1 | -27.7
O=C(NCCc1nnc2ccc(N3CCCC3)nn12)c1ccccc1 | -11.8
O=C(NC1CC2CCCC(C1)N2C(=O)Nc1ccccc1F)C1CC1 (centres unmarked) | 17.7
C[C@H](NC(=O)c1nc[nH]c1C(=O)N1CCc2ccccc2C1)C(=O)OC(C)(C)C | -3.23
Cc1ccccc1NC(=O)N1CCN(S(=O)(=O)c2ccccc2)CC1 | 8.23
O=C(CSc1nc2ccccc2s1)NCc1ccc2c(c1)OCO2 | -8.37
CC1CCN(C(=S)SCc2nc(N)nc(Nc3ccccc3)n2)CC1 | -2.72
CCc1nnc(NC(=O)COc2ccc3c(c2)OCO3)s1 | 26.1
COc1ccc(Cl)cc1C(=O)NCCCSc1ccccc1 | -2.2
O=C(NCC1CCCN(Cc2cccc(C(F)(F)F)c2)C1)c1ccc(F)cc1 (centres unmarked) | -58.2

SMILES | hERG current change (%, negative = inhibition) at 10uM [%]
CN(C)S(=O)(=O)c1cccc(-c2cn3ccccc3n2)c1 | -2.91
CCCCCCSc1ccc([C@H]2N[C@@](Cc3ccccc3)(C(=O)OC)[C@H]3C(=O)N(C)C(=O)[C@@H]23)cc1.O=C(O)C(F)(F)F | 13.3
O=C(/C=C/c1cc[n+](CC(=O)c2ccc3cccc4c3c2CC4)cc1)c1ccc2cccc3c2c1CC3.[Br-] | 12.9
Cn1cc(CCC(=O)N2CCCC(Nc3ccc(F)cc3)C2)cn1 (centres unmarked) | 12.6
CS(=O)(=O)Nc1ccc(C(=O)Nc2ccc(S(=O)(=O)Nc3nccs3)cc2)cc1 | 12
CCC(=O)c1ccc(OCC(=O)NC2(C#N)CCCCC2)cc1 | 5.49
COc1cc(CN2CCN(C(=O)c3ccc(-c4ccccc4)cc3)CC2)cc(OC)c1OC.O=C(O)C(=O)O | -54.7
CS(=O)(=O)N1CCN=C1SCc1ccc([N+](=O)[O-])cc1 | -38.1
CCC1CN(C(=O)N2CCC(C(=O)NCc3ccccc3OC)CC2)c2cc(C)ccc2O1 (centres unmarked) | -26.1
O=C(Nc1nccs1)c1ccc(COc2ccccc2)o1 | 15.6
CCCOc1ccc(CCc2n[nH]c(=S)n2Cc2ccccc2)cc1 | -7.26
CCCS(=O)(=O)N1CCC(C(=O)N2CCc3ccccc3C2)CC1 | -3.6
O=C(O)C(Cc1c[nH]c2ccccc12)NS(=O)(=O)c1ccc(Br)cc1 (centres unmarked) | 8.36
O=C(c1ccc(N2CCCCC2)c([N+](=O)[O-])c1)N(Cc1ccccc1)c1ccccn1 | -28
Cc1nnc(N2CCCCC2)c2ccccc12 | -5.58
CCOC(=O)N1CCN(Cc2cn3ccccc3n2)CC1.O=C(O)C(=O)O | 21.9
CCSc1cnn(-c2ccccc2)c(=O)c1SCC | -8.06
O=C(O)C(=O)O.O=C(c1cccc(F)c1)N1CCN(C2CCCCC2)CC1 | -42.4
O=c1cccc2n1CC1CC2CN(Cc2ccc3c(c2)OCO3)C1 (centres unmarked) | -16
O=C(CCCCCN1C(=O)CCC1=O)Nc1ccc(Br)cc1F | 1.73
